Measurements as given in PubChem BioAssay AID488969 (Vanderbilt High Throughput Screening Facility, 2010).
Where “and” joins values, the source holds several entries; their conditions need not be identical. Equal values may be shown once. In all, about 110,000 compounds were measured (“z-score”: median about -0.1, highest 2% from about 2 on). Some of the results follow. Calls of active or inactive are those of the source.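 Rule for the calls: active = z-score in the third read window above 3 or below -3; inactive = the rest.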

The molecules below were run against Metabotropic glutamate receptor 8 (Rattus norvegicus) (UniProt P70579) (assay: mGluR8 Gi/Go-coupled signaling modulation – cell-based, rat, thallium flux, HTS, primary screen (AID 488969)). Details: HEK293 rat mGluR8, GIRK (G protein-gated inwardly rectifying potassium channel) thallium flux, FluoZin2; at 10 µM; stronger effect = higher value; submaximal glutamate (EC20) added with thallium.
Chain of UniProt P70579 (P70579 whole entry, looked up): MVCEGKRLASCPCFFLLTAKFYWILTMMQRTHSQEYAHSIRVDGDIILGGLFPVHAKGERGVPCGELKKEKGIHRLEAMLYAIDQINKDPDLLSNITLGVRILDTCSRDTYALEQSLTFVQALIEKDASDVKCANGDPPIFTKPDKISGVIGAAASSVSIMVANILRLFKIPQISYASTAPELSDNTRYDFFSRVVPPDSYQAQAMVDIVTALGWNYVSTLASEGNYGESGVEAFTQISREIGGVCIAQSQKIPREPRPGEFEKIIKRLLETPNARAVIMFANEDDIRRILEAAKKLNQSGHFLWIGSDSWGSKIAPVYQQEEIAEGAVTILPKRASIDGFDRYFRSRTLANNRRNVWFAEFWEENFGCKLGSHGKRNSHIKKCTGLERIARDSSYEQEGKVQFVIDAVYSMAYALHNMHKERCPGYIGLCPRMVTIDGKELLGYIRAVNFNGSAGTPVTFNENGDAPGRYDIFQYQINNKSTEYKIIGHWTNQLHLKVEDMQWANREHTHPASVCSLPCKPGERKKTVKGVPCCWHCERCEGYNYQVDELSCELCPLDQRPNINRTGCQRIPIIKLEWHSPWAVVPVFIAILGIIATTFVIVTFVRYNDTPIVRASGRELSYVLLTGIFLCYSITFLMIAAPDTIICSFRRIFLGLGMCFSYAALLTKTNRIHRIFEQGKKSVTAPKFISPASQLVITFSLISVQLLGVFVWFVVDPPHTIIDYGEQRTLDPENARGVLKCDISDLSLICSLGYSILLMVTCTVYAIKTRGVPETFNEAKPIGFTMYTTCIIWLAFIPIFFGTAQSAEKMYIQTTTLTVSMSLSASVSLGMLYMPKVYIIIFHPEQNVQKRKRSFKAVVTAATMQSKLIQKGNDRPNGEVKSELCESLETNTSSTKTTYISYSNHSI

Structure (SMILES) | z-score
CCCC(=O)c1cc(-c2nc3ccccc3n2C)n(C)c1 | 0.164
O=C(COC(=O)c1cccs1)NCCC1=CCCCC1 | 0.0493
COc1cc(NC(=O)c2cc3c(Cl)nc4ccccc4c3s2)cc(OC)c1OC | 0.176
COc1ccc(NC(=O)CC2C(=O)N(c3cccc(C)c3)C(=O)N2C2CCCCC2)cc1 (stereo not drawn) | -0.0942
Cc1cccc(NC(=O)c2cccc(N3C(=O)C4C5CCC(C5)C4C3=O)c2)c1C (stereo not drawn) | -0.379
COc1ccc(CC(=O)N2CC(=O)N(CCc3ccccc3)C(=O)C2)cc1 | 0.258
O=C(Nc1c(F)cc(F)cc1Br)c1cc(-c2ccco2)on1 | -0.358
CCCCc1nnc(NC(=O)C=C(C)C)s1 | -0.873
COc1ccc(-n2nc(C(=O)NCC(=O)NCc3ccco3)c3ccccc3c2=O)cc1 | -0.468
CCc1ccc(OCC(=O)OCC(=O)c2ccc3c(c2)NC(=O)CO3)cc1 | -0.272
COc1ccc(-c2nnn(CC(=O)N(Cc3ccccc3Cl)C(C(=O)NCC3CCCO3)c3ccco3)n2)cc1OC (stereo not drawn) | 0.205
CC(C)N(C(=O)CSc1nnc(-c2cc3ccccc3cc2O)n1Cc1ccco1)C(C)C | -0.0489
O=C(N=Nc1c(O)[nH]c2ccccc12)c1cccc(S(=O)(=O)N2CCCCC2)c1 | -0.317
Cc1ccc(-n2nc3ccc(NC(=O)c4ccc5c(c4)OCO5)cc3n2)cc1 | 0.0138
COc1ccc(/C(C)=N/N=C(\C)c2ccc(OC)cc2OC)c(OC)c1 | 0.0708
CN1CCN(C(=O)c2ccc(COc3ccc(C(C)(C)C)cc3)o2)CC1 | -1.02
CC1Cc2ccccc2N1C(=O)CSc1nnnn1C1CCCC1 (stereo not drawn) | -0.0402
O=C(NC1CCS(=O)(=O)C1)OC1CCCCC1 (stereo not drawn) | -0.729
CCOC(=O)C(Cc1ccccc1)C(=O)Nc1ccccc1C (stereo not drawn) | -0.136
COc1ccc(-c2nc(C#N)c(NCc3ccccc3Cl)o2)cc1OC | -1.12
OCCCNC(=S)Nc1ccc2nc(-c3ccccn3)c(-c3ccccn3)nc2c1 | -0.00335
Cc1cc(C)n(CC(O)Cn2c3ccc(Br)cc3c3cc(Br)ccc32)c(=O)n1 (stereo not drawn) | 0.596
Cc1cccc(NC(=S)NC(=O)c2ccco2)n1 | active: 3.93

Structure (SMILES) | z-score
Cc1nn2c(-c3ccccc3)nnc2c2ccccc12 | -2.86
Cc1nc(NCCc2ccccc2)c(C#N)c(C)c1[N+](=O)[O-] | -0.0588
Cc1cc(C)cc(N(CC(=O)NCC2CCCO2)C(=O)CN2C(=O)COc3ccccc32)c1 (stereo not drawn) | -0.231
CC(=C\C(=O)O)/C(=C/c1ccccc1)C(=O)O | 0.113
Brc1ccccc1OCCCn1cnc2ccccc21 | 1.08
Cn1nnc(NC(=O)C(c2ccccc2)c2ccccc2)n1 | 0.0692
O=C(O)CC1S/C(=N/N=C/C=C/c2ccccc2)NC1=O (stereo not drawn) | -0.0651 and -0.0273
CCCNS(=O)(=O)c1cccc2cccnc12 | -0.338
CCOC(=O)/C=C1\NC(C)(C)Cc2cc(OC)c(OC)cc21 | -0.0877
CCOc1ccccc1NC(=O)Cn1cnc2c(cnn2-c2ccc(C)c(C)c2)c1=O | -0.512
COc1cc(-c2nc3c(c(C)nn3-c3ccccc3)c3cc(OC)c(OC)cc23)ccc1O | -0.268
CCCCn1c(=O)[nH]c2ccccc21 | -0.117
O=C(CSc1oc(-c2cccs2)nc1S(=O)(=O)c1ccccc1)NC1CCCCC1 | -0.258
Clc1ccc2nc(N3CCNCC3)nc(-c3ccccc3)c2c1 | 1.19
Cc1ccc(N(CC(=O)NCCSCc2ccco2)S(C)(=O)=O)cc1 | -0.296
CCOc1cc(/C=N/NC(=O)CN2CCCCC2)ccc1OCc1cccc(Cl)c1 | 0.18
CS(=O)(=O)N(Cc1ccccc1F)c1ccccc1 | -0.21
CCCCOC(=O)C1=C(C)Nc2ncnn2C1c1ccc(OC)c(OC)c1OC (stereo not drawn) | -0.181
COC(=O)c1sc(=S)n(-c2cc(F)ccc2F)c1N | -0.0195
COc1ccc(C(=O)CN2C(=O)C(C)(C)Oc3ccc(C(=O)N4CCCCCC4)cc32)cc1 | -0.448
COc1ccc(N2C(=O)C3CCCN3C2c2ccc(Cl)cc2)cc1 (stereo not drawn) | -0.0455
CC(=O)c1cnc(Nc2nc(C)c3ccccc3n2)nc1C | 0.0595
Cc1ccc(S(=O)(=O)N2CCOCC2)cc1NC(=O)Cn1ccsc1=N | 0.262

Structure (SMILES) | z-score
Cc1cc(N2CCN(Cc3ccccc3)CC2)n2nc(C)c(-c3ccccc3)c2n1 | 0.0393
CCOC(=O)CSc1nc2sc3c(c2c(=O)[nH]1)CCCC3 | -0.982
CC(C)=CCC/C(C)=C/C=N/NC(=O)c1ccc([N+](=O)[O-])cc1 | 1.52
COCC(=O)Nc1ccc(Br)cc1 | -0.174
Cc1ccc(NC(=O)C(C)c2cccc(C(=O)c3ccccc3)c2)cc1 (stereo not drawn) | -0.329
CCOC(=O)Cn1c(=NC(=O)c2nc3ccccc3s2)sc2cc(S(N)(=O)=O)ccc21 | -0.287
CC(CN1CCNCC1)(NS(=O)(=O)c1ccccc1)c1ccccc1 (stereo not drawn) | 0.939
COc1ccc(N=CC2=C(O)c3ccccc3C2=O)c(OC)c1 | -0.0906
CCC(=O)N1N=C2CC(C)(C)OCC2C1c1ccccc1 (stereo not drawn) | 0.0291
COc1ccccc1-c1coc2c(CN3CCN(C)CC3)c(O)ccc2c1=O | -0.247
COc1ccc(/C=C/C(=O)NC(=S)NNC(=O)c2ccco2)cc1 | 0.921
Nc1c(-c2ccc(Cl)cc2)cnn1-c1cccc([N+](=O)[O-])c1 | 0.211
CCOc1ccc(NC(=S)N(Cc2ccc(Cl)cc2)Cc2ccco2)cc1 | 0.243
Cc1cc(C)c(N=C2CCCN2Cc2ccccc2)c(C#N)c1 | -1.24
CCC(Sc1nc(N)c(NC(=O)c2ccc(OC)c(OC)c2)c(=O)[nH]1)C(=O)OC (stereo not drawn) | -0.143
CSc1ncccc1C(=O)OCC(=O)NC(N)=O | -0.358
COC(=O)c1sccc1NC(=O)c1cc2c(s1)CCCC2 | -0.149
COc1ccc(NC(=O)c2ccc(COCC(F)(F)C(F)F)cc2)cc1 | -0.334
Cc1c(O)ccc(C(=O)COc2ccc(F)cc2)c1O | -0.135
CCOC(=O)N1CCC(N2CCN(S(=O)(=O)CC)CC2)CC1 | -0.0847
COc1cc(CNC(=O)c2ccc(Cn3nc(C)c(Cl)c3C)o2)cc(OC)c1 | -2.29
O=C(CCl)N1c2ccccc2OCC1c1ccccc1 (stereo not drawn) | -0.994
CC1(C)CC(NC(=O)Cc2ccccc2[N+](=O)[O-])CC(C)(C)N1 | -0.145

Structure (SMILES) | z-score
COc1ccc(S(=O)(=O)N2CCN(c3cc(-c4ccccc4)nc4ncnn34)CC2)cc1 | -0.346
N#CCCN(Cc1cccnc1)C(=O)c1ccc(S(=O)(=O)N2CCOCC2)cc1 | -0.285
O=C(OCc1ccccc1Cl)c1ccccc1C(=O)c1ccccc1 | -0.013
CC(C)Cn1c(-c2ccco2)nc2c(c(=O)c3ccccc3n2C)c1=O | -1.47
COc1ccccc1CNC(=O)COC(=O)Cc1ccc(Cl)cc1 | -0.422
Sc1oc(-c2ccccc2)cc1C=Nc1ccccc1 | 0.839
COC(=O)C1C(=O)NC(SC)=C(C#N)C1c1ccccc1 (stereo not drawn) | -0.413
O=C(NCc1ccco1)c1ccc2c(c1)C(=O)c1ccccc1-2 | -0.356
Cc1onc(-c2ccccc2Cl)c1C(=O)Nc1cccc2cccnc12 | 0.0209
COc1ccc(CN(Cc2cc3cc4c(cc3[nH]c2=O)OCO4)C(=O)NC2CCCCC2)cc1 | 0.473
O=C(CSc1ncnc2sc3c(c12)CCCC3)c1ccccc1 | 1.03
CCn1nnc(NC(=O)c2ccccc2Br)n1 | -0.101
Cc1cc(C)nc(N(C#N)Cc2ccc(Br)cc2)n1 | -1.35
CCNc1nc(NC#N)nc(SCC(=O)OCC)n1 | -0.413
COc1ccc(CN=C2NC(=O)CC(C(=O)Nc3ccccc3C)S2)cc1 (stereo not drawn) | -0.149
COc1ccccc1Nc1nc(N)nc(CN2CCCCCC2)n1 | 1.23
COc1cc(NC(=O)c2ccc(COCC(F)(F)F)cc2)cc(OC)c1OC | -0.608
Cc1ccc(C)c(S(=O)(=O)N/N=C2/CCCc3ccccc32)c1 | -0.153
Cc1cccc(N2CCN(c3ccc(NC(=O)/C=C(/C(=O)O)c4ccccc4)cc3)CC2)c1 | 0.00838
CC(C)c1cc(NCC2CCCO2)n2c(nc3ccccc32)c1C#N (stereo not drawn) | -1.25
Brc1ccc(-c2noc(CCc3ccccc3)n2)o1 | 0.116
CCOC(=O)C(NC(=O)CCl)(Nc1sc(C)c(CC)c1C#N)C(F)(F)F (stereo not drawn) | -0.704
COc1ccc(Nc2oc(-c3ccc(Cl)cc3)nc2C#N)cc1 | -0.0925

Structure (SMILES) | z-score
Cc1ccc2c(c1)-c1c(cnn1CC(=O)O)CO2 | -0.325
COc1ccc(CNC(=O)CN2C(=O)C(C)N(c3ccc(C)cc3)C2=O)cc1 (stereo not drawn) | -0.198
CC(C)(C)c1nc2c(C#N)c(-c3ccc(Cl)cc3)ccn2n1 | -0.488
O=c1oc(-c2cccs2)nc2scc(-c3cccs3)c12 | -0.0494
CCC(=O)Nc1ccccc1C(=O)OCC(=O)c1ccccc1 | -0.38
CCOc1ccc(NC(=O)CCN2CCN(c3ccccc3)CC2)cc1 | -0.572
CCOC(=O)c1c(NC(=O)Cc2cccs2)sc2c1CCCC2 | 0.258
Cc1ccc(S(=O)(=O)/N=S(/C)c2ccccc2)cc1 (stereo not drawn) | 0.693
CCOC(=O)c1cc(-c2ccccc2)sc1NC(=O)C(C)C | -0.259
CC1=CC(c2ccc(Cl)cc2)n2nc(NC(=O)c3ccccc3)nc2N1 (stereo not drawn) | 0.22
O=C(COc1ccc(Cl)cc1Cl)Nc1nc2n(n1)C(c1ccccc1)CC(=O)N2 (stereo not drawn) | -0.56
CCCOc1ccc(/C=N/NC(=O)CSCc2ccc([N+](=O)[O-])cc2)cc1OCC | -0.284
CCNC(=O)COc1cccc2ccccc12 | 1.28
CC(c1ccccc1)n1cc(C(=O)NCc2ccccn2)nn1 (stereo not drawn) | 0.775
COc1cc(/C=N/N=C/c2cc(OC)c(O)c(OC)c2)cc(OC)c1O | -0.507
CCS(=O)(=O)c1nnnn1-c1ccccc1S(C)(=O)=O | -0.123
Cc1ccc(-c2nn3nnnc3c3ccccc23)cc1C | -0.106
CN1C(=O)CC(N2CCN(c3ccc(Cl)cc3)CC2)C1=O (stereo not drawn) | -0.269
O=C(OCc1ccccc1)N1CCOCCOCCN(C(=O)OCc2ccccc2)CCOCCOCC1 | -0.384
Cc1ccc(C(=O)NC2CCSC2=O)cc1 (stereo not drawn) | -0.0883
COCCn1c(SCC(=O)Nc2ccc(Cl)cn2)nc2ccccc21 | -0.407
